Laboratory results from publication PMC6212790.
The list shows a part of the results. At the low end of the ranking, values are background and their order means little.

Biological target: T1, GST-Rok (full length) (UniProt O34857)
T1 sequence: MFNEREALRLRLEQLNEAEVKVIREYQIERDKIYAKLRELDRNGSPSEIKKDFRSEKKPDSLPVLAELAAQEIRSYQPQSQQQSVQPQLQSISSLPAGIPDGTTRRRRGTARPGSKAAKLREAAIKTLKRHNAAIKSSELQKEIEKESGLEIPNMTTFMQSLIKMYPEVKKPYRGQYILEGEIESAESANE
Test: protein binding microarray;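 further: rank score from −0.5 (least bound) to 0.5 (best bound)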
Details: Rok is a gene silencer of Bacillus subtilis; high values mean tight binding; most listed sequences are background and not binding sites; double strand, one strand shown

Sequence | binding signal
AATCCATC | 0.0541 E-score
AGGATAAC | 0.0151 E-score
GCTATTCC | -0.0831 E-score
CATACTAG | 0.312 E-score
GCGTTCGA | -0.105 E-score
AGTCCCCG | -0.269 E-score
ACCACTTG | 0.176 E-score
CGTTTCGC | -0.192 E-score
CCGTTACC | -0.0167 E-score
AGGTGACG | -0.249 E-score
CAGACCTC | -0.198 E-score
GGCACGAA | -0.18 E-score
AGTACCAC | 0.0156 E-score
GTACCGCA | 0.033 E-score
GAGAAGAA | 0.0707 E-score
AGCTGCAT | -0.0862 E-score
CACCAATC | -0.000217 E-score
AAAACCCG | -0.0675 E-score
GATATCAA | 0.208 E-score
GTAGCTAA | 0.373 E-score
ACGCTGAT | -0.0822 E-score
AAACTACG | 0.377 E-score
CCCACTCG | -0.0767 E-score
ATATGCCG | 0.0462 E-score
AGGTGCAC | -0.291 E-score

Sequence | binding signal
CTGCTGAA | 0.0969 E-score
GTAGGCAA | 0.0616 E-score
AGGCGACC | -0.228 E-score
AGCACTCG | -0.11 E-score
ACCAAACA | 0.0769 E-score
GGTAGGGA | -0.0759 E-score
TGAAGTAA | 0.137 E-score
CTGGTGCC | -0.123 E-score
CGAGCAAC | -0.122 E-score
GCCGTGTA | 0.00757 E-score
ACCATAGA | -0.0234 E-score
ACGCATAA | 0.0979 E-score
AACGCGCT | 0.0978 E-score
CCGGGCTA | -0.243 E-score
AATTCTTA | 0.218 E-score
TGTCGACA | -0.0439 E-score
CAACGTGG | 0.0206 E-score
ATAGAGCC | -0.0243 E-score
GGATCTTA | 0.0165 E-score
AAAATGCG | 0.0533 E-score
CCTTGCGC | -0.116 E-score
CCTGACAG | -0.133 E-score
ACATAAGG | 0.0132 E-score
CATGACCA | -0.0647 E-score
AATAGCTG | 0.206 E-score

Sequence | binding signal
GGACTATA | 0.0812 E-score
AGTCGCGG | -0.173 E-score
AGGGAGAA | -0.29 E-score
CGAAATAC | 0.163 E-score
ACTCGCTG | -0.189 E-score
AGCCTCAC | -0.223 E-score
GGTAATCA | 0.0323 E-score
CAGGGTAC | -0.0982 E-score
ACGGGACC | -0.279 E-score
AAAGCTCA | 0.0744 E-score
AGTACATA | 0.324 E-score
GAACCCCA | -0.209 E-score
ATAAGCGA | -0.133 E-score
ATGCCAAG | -0.0817 E-score
TCGAACCA | 0.0879 E-score
GGGGATGA | -0.331 E-score
AACTCATG | 0.132 E-score
ATCTTTTC | 0.0687 E-score
CAGAGGTA | 0.149 E-score
ACGTGCAT | 0.064 E-score
ATAAGTGG | 0.173 E-score
CGTGATAA | 0.124 E-score
AGAGCTTC | -0.213 E-score
CCGCCCAC | -0.267 E-score
CCGCCGGC | -0.436 E-score

Sequence | binding signal
AAGGCGCC | -0.34 E-score
CCGTAGAA | 0.32 E-score
ACTTCAAT | 0.162 E-score
AGCGCATA | 0.222 E-score
CACGTTAA | 0.0985 E-score
AAAGGGAA | -0.166 E-score
TTCAGCAA | 0.0648 E-score
CAAGCTGC | -0.178 E-score
GGGGCCCA | -0.342 E-score
CGTGCTTC | 0.0956 E-score
CCCGGGTC | -0.306 E-score
ACTCATAG | -0.0449 E-score
ATAGGTTA | 0.212 E-score
AACTAAAC | 0.138 E-score
ATCTAGAG | -0.0608 E-score
GCACGTAA | 0.0424 E-score
GAACCTTA | -0.0441 E-score
GAGATCGA | 0.087 E-score
GAAGATCC | -0.296 E-score
ACCATCTC | -0.0707 E-score
ATATTGGC | -0.0597 E-score
GACTTCTC | -0.00746 E-score
GCGATGCA | -0.0695 E-score
CACCACCA | -0.236 E-score
ATTCGGTA | 0.259 E-score

Sequence | binding signal
CCCAGCGA | -0.255 E-score
TTAATGAA | 0.0882 E-score
CATTAAGA | -0.0463 E-score
CCATAGGG | -0.12 E-score
GGTTTGGA | -0.121 E-score
CCGAATTA | 0.235 E-score
AGGACGAG | -0.434 E-score
TAAGCTTA | 0.102 E-score
AATATATC | 0.412 E-score
CAAACGGG | -0.192 E-score
CCTCGCTA | -0.239 E-score
GCGAGGAC | -0.222 E-score
AACCCCCC | -0.326 E-score
AATGATCG | 0.157 E-score
CCTATAGC | 0.122 E-score
ACACGTGA | 0.0365 E-score
AATGGTAG | 0.398 E-score
GGAGCCGA | -0.235 E-score
AATTTTTC | 0.0424 E-score
ACAATTCC | 0.242 E-score
GAACCGCA | 0.0812 E-score
CCCTGACG | -0.349 E-score
GCTGTCCC | -0.204 E-score
CCCTCTCC | -0.435 E-score
CGGCATCA | -0.0891 E-score

Sequence | binding signal
GTACGAAA | 0.244 E-score
CAACGCTA | -0.0304 E-score
AGCAGACT | -0.102 E-score
GCGCCCTA | -0.171 E-score
CGTAGAGA | 0.0535 E-score
AGGGGACC | -0.362 E-score
GGAACGTA | 0.00178 E-score
GCGGCAGC | -0.362 E-score
GCTTGCGA | -0.0725 E-score
GAGCCCAA | -0.192 E-score
ACAGATAA | 0.159 E-score
CAAGACGC | -0.161 E-score
AATGGCGG | -0.271 E-score
AGTGATAA | 0.145 E-score
AAACGGGT | -0.091 E-score
CAAACGCA | -0.236 E-score
GGTGGCAA | -0.079 E-score
GGATATGA | 0.212 E-score
AGTCCGCG | -0.243 E-score
AGAATGTA | 0.201 E-score
CTCCTCAG | -0.391 E-score
ACCTTTGC | -0.0699 E-score
CCGCACTA | 0.123 E-score
TAAGAGCA | -0.127 E-score
ACGCTCCA | -0.214 E-score

Sequence | binding signal
CGTCGACG | -0.281 E-score
ACGTTGGA | -0.0982 E-score
AAATGAGG | -0.0365 E-score
ACGTGGAA | -0.14 E-score
CTACGTAG | 0.282 E-score
AGGGTGAC | -0.316 E-score
TCACCGAA | -0.176 E-score
CGTCAAAC | -0.108 E-score
GCTGCTTA | 0.123 E-score
CAGCTTGA | -0.172 E-score
GATGAGAA | -0.0179 E-score
CCAACCTC | -0.111 E-score
ATGGCGGG | -0.261 E-score
AGATGTAA | 0.17 E-score
CTCATTCA | -0.172 E-score
ACACGTCG | -0.0892 E-score
ATATCTCC | 0.174 E-score
ATAAACTA | 0.361 E-score
ATCCGCTA | 0.15 E-score
GTGATCTA | 0.0742 E-score
GGTGTCAA | 0.0133 E-score
ACAAGGAT | 0.0779 E-score
TGAACTCA | -0.00906 E-score
GTACTCAA | -0.0225 E-score
CGGTCTTC | -0.286 E-score

Sequence | binding signal
GAGAAGGA | -0.377 E-score
AGGGTTTC | -0.197 E-score
CACGTCAC | -0.0514 E-score
GCAGGCGA | -0.152 E-score
AAACCATT | 0.196 E-score
ATGGTCTG | -0.171 E-score
TAGCCGAA | 0.0718 E-score
AGCTGGGG | -0.188 E-score
GCCCCGGA | -0.471 E-score
GTAGAGCA | -0.132 E-score
ATAGGCAA | 0.0174 E-score
GCAGGACA | -0.094 E-score
ATACACGA | 0.135 E-score
CTGGGTAA | 0.0274 E-score
CCACCAGG | -0.294 E-score
AAGAGTCA | 0.0182 E-score
ATGGACCC | -0.163 E-score
AGTTGGAA | 0.0449 E-score
ATAGTTGA | 0.228 E-score
CACTTTAA | 0.034 E-score
AGGCGTTA | -0.053 E-score
CACTCTGG | 0.0912 E-score
GCATGACA | -0.0957 E-score
CTCGTGGC | -0.35 E-score
ACATGCGT | -0.0467 E-score

Sequence | binding signal
TCGTGAGA | 0.0707 E-score
GACTCCCA | -0.295 E-score
ATACGCGA | 0.227 E-score
TCAATTAA | 0.0259 E-score
GCAAGTAA | -0.0735 E-score
CGCGACCC | -0.182 E-score
ACATCTAG | 0.325 E-score
CATATAAG | 0.119 E-score
AGCGGTAG | 0.34 E-score
AGGCGTAC | -0.03 E-score
GCATAACA | 0.0745 E-score
GTAATTGA | 0.246 E-score
AAAGCATT | -0.0355 E-score
GCAATAGC | 0.0689 E-score
AATTCTGG | 0.0055 E-score
CGTTAGAC | -0.16 E-score
ACCAGGGC | -0.375 E-score
CAGCCTGA | -0.0561 E-score
ACCGCAAC | 0.157 E-score
